Measurements taken from IntAct's records for PubMed 16917505.

B1: Somatostatin receptor type 2 (Homo sapiens), P30874 (parent)
chain: MDMADEPLNGSHTWLSIPFDLNGSVVSTNTSNQTEPYYDLTSNAVLTFIYFVVCIIGLCGNTLVIYVILRYAKMKTITNIYILNLAIADELFMLGLPFLAMQVALVHWPFGKAICRVVMTVDGINQFTSIFCLTVMSIDRYLAVVHPIKSAKWRRPRTAKMITMAVWGVSLLVILPIMIYAGLRSNQWGRSSCTINWPGESGAWYTGFIIYTFILGFLVPLTIICLCYLFIIIKVKSSGIRVGSSKRKKSEKKVTRMVSIVVAVFIFCWLPFYIFNVSSVSMAISPTPALKGMFDFVVVLTYANSCANPILYAFLSDNFKKSFQNVLCLVKVSGTDDGERSDSKQDKSRLNETTETQRTLLNGDLQTSI

Variants of: B1
Details: with p85a_human PIK3R1, P27986

Row | effect of a mutation on the interaction | Variant
1 | disrupting interaction | Y71F
